Test results from patent US20260053861A1, “CELL COMPOSITIONS AND METHODS OF USING THE SAME” (THE REGENTS OF THE UNIVERSITY OF CALIFORNIA, priority 2022, published 2026).

System: sciatic nerves of STZ treated animals
Assay: Transmission electron microscopy of myelin in sciatic nerves of STZ-treated mice
Conditions: BP+STZ vs STZ

`CC(NC(C)(C)C)C(=O)c1cccc(Cl)c1` (stereo not shown) [BP, Bupropion] was tested, and the “percentage of fibers with damaged myelin in the sciatic nerves” value was “significantly reduced”.
